# Measured values reported in the BET-seq Pho4 binding data (Le et al. 2018).
# This is one part of the list. The energies were worked out here from pooled read counts, against the library average; single values are noisy.
# Target: T1, Pho4 (S. cerevisiae) (UniProt P07270)
# T1 sequence: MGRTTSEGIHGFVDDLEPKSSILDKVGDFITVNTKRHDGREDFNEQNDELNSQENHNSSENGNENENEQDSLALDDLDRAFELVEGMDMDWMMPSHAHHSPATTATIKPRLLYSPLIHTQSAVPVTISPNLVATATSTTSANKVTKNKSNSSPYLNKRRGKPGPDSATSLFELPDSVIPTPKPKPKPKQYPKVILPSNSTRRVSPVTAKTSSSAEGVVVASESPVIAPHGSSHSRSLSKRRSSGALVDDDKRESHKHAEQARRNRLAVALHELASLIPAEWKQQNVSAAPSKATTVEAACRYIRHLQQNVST
# Test: relative binding free energy (BET-seq); higher = weaker binding
# Conditions: reference: library average
row,Sequence,relative binding free energy
1,GACGTCACGTGAGGGG,0.31 kcal/mol
2,TTTCTCACGTGTTCGA,0.31 kcal/mol
3,GTATGCACGTGAAGCT,0.3 kcal/mol
4,GGGATCACGTGCGTGT,0.1 kcal/mol
5,GTAGGCACGTGATGGT,0.09 kcal/mol
6,ACGATCACGTGGTGGT,0.02 kcal/mol
7,GTTTCCACGTGGTGTC,0.09 kcal/mol
8,ATTTGCACGTGGGAAG,-0.05 kcal/mol
9,TGCTTCACGTGAGGCT,0.33 kcal/mol
10,GTTGGCACGTGGAGGA,0 kcal/mol
11,GTTTGCACGTGGTAAC,0.15 kcal/mol
12,TACGGCACGTGGTGTT,-0.07 kcal/mol
13,TACTTCACGTGCTGTG,0.29 kcal/mol
14,GCATTCACGTGTATTG,0.24 kcal/mol
15,GTGGGCACGTGATGTT,0.05 kcal/mol
16,TCTTCCACGTGTTTGG,0.2 kcal/mol
17,GTTTCCACGTGGGGTC,-0.02 kcal/mol
18,TAAGGCACGTGGTAGC,-0.1 kcal/mol
19,TGGGGCACGTGCGGAC,-0.15 kcal/mol
20,TTTTGCACGTGTTAGG,0.1 kcal/mol
21,TGGCTCACGTGGTATG,0.13 kcal/mol
22,GTTGGCACGTGTAGCA,-0.06 kcal/mol
23,ATAGTCACGTGATGTT,0.2 kcal/mol

row,Sequence,relative binding free energy
1,TGTTTCACGTGTGGTT,0.34 kcal/mol
2,AGTTCCACGTGTTTTT,-0.07 kcal/mol
3,GGTAGCACGTGTTCGT,0 kcal/mol
4,TAGGTCACGTGTGCTA,0.08 kcal/mol
5,GTATTCACGTGGAGGA,0.06 kcal/mol
6,ATTGCCACGTGGGAGG,-0.19 kcal/mol
7,TGTTTCACGTGTCCGG,0.37 kcal/mol
8,GTTGACACGTGGCGGT,0.02 kcal/mol
9,TAGGTCACGTGTTGCG,0.08 kcal/mol
10,GTCATCACGTGTTGGT,0.27 kcal/mol
11,ATGCGCACGTGACAGT,0.11 kcal/mol
12,AGTTACACGTGGAGAG,0.02 kcal/mol
13,GGTAGCACGTGTTGAA,-0.05 kcal/mol
14,AGATACACGTGTGGTC,0.03 kcal/mol
15,GACATCACGTGTTTGG,0.22 kcal/mol
16,TGTAGCACGTGGAGAG,-0.18 kcal/mol
17,GGCTTCACGTGTTGGG,0.49 kcal/mol
18,GTTGTCACGTGTAATC,0.11 kcal/mol
19,AAAATCACGTGGGTGT,0.08 kcal/mol
20,GATTACACGTGGGGGG,0.03 kcal/mol
21,GAGTGCACGTGTGAAG,0.28 kcal/mol
22,ATTAGCACGTGGGGCT,-0.26 kcal/mol
23,GGTGTCACGTGGTGAT,0.15 kcal/mol

row,Sequence,relative binding free energy
1,TATGGCACGTGATGTT,0.02 kcal/mol
2,ATGGTCACGTGACGCG,0.21 kcal/mol
3,GTGGGCACGTGAGCGA,0.04 kcal/mol
4,TATTCCACGTGCATGT,0.16 kcal/mol
5,TGACGCACGTGAGTGG,-0.07 kcal/mol
6,TATTTCACGTGAATGT,0.24 kcal/mol
7,TTAGTCACGTGAACTT,0.25 kcal/mol
8,TGTTTCACGTGTAGTA,0.24 kcal/mol
9,TTGGCCACGTGTTTGT,-0.04 kcal/mol
10,TGGTACACGTGTATGC,0.06 kcal/mol
11,GGGGTCACGTGCGAAT,0.11 kcal/mol
12,GTTTGCACGTGGGCAA,-0.07 kcal/mol
13,TTGGGCACGTGGGAAG,-0.13 kcal/mol
14,TTCATCACGTGCATTT,0.24 kcal/mol
15,GGGATCACGTGTAAGA,0.31 kcal/mol
16,TCGGGCACGTGGGCGA,-0.21 kcal/mol
17,GAGCGCACGTGAGAGG,0.19 kcal/mol
18,TTCGGCACGTGTAGGC,-0.1 kcal/mol
19,TTGCTCACGTGTTATT,0.18 kcal/mol
20,CGGGCCACGTGAGTGT,0.02 kcal/mol
21,ATAAGCACGTGCTGGG,-0.02 kcal/mol
22,CACGTCACGTGGGTGG,-0.02 kcal/mol
23,CGGTTCACGTGTATCG,0.4 kcal/mol

row,Sequence,relative binding free energy
1,AATTGCACGTGTAGAT,0.24 kcal/mol
2,GTGAACACGTGGAGGC,0.14 kcal/mol
3,CGCGGCACGTGGGGAT,-0.26 kcal/mol
4,GTTTCCACGTGTTGTC,0.19 kcal/mol
5,TAGGGCACGTGAGAAA,0.14 kcal/mol
6,AGGTGCACGTGAGTAA,0.09 kcal/mol
7,TTGTTCACGTGGTGGA,0.25 kcal/mol
8,GTACCCACGTGGGGGG,-0.13 kcal/mol
9,GGGAACACGTGGGATG,-0.11 kcal/mol
10,GTGGGCACGTGTGGTT,0.08 kcal/mol
11,TTAGACACGTGTGTTT,0.05 kcal/mol
12,GGGATCACGTGAATTT,0.54 kcal/mol
13,GGATGCACGTGGGAGT,-0.1 kcal/mol
14,CAGTTCACGTGTGTTG,0.16 kcal/mol
15,GGGTCCACGTGGGGAC,-0.01 kcal/mol
16,CTGGTCACGTGATATA,0.27 kcal/mol
17,AAAGTCACGTGTGATT,0.17 kcal/mol
18,TAGGTCACGTGTAGTG,0.14 kcal/mol
19,GGGGGCACGTGAATCA,0.23 kcal/mol
20,GTTTTCACGTGGTCAT,0.21 kcal/mol
21,GAGAGCACGTGTTGTT,-0.01 kcal/mol
22,TTAATCACGTGATTGA,0.29 kcal/mol
23,ATTGCCACGTGGTGCG,-0.12 kcal/mol

row,Sequence,relative binding free energy
1,GTTTGCACGTGAAGCT,0.23 kcal/mol
2,GAATTCACGTGTAGTG,0.18 kcal/mol
3,TGGCGCACGTGCGGGG,-0.07 kcal/mol
4,GGTTGCACGTGCAGTT,-0.01 kcal/mol
5,GTAAGCACGTGGGGCG,-0.17 kcal/mol
6,TTGCACACGTGGATTT,0.18 kcal/mol
7,TATCGCACGTGTAAGT,0.02 kcal/mol
8,TGAGGCACGTGGGAGA,-0.13 kcal/mol
9,GTGGTCACGTGAATGA,0.39 kcal/mol
10,TGGACCACGTGTGGAG,-0.01 kcal/mol
11,GGGGCCACGTGGTCCG,-0.03 kcal/mol
12,GTGTCCACGTGGGAGG,0 kcal/mol
13,TTATTCACGTGAGGCG,0.38 kcal/mol
14,TTGTACACGTGGAATA,0.22 kcal/mol
15,AGATGCACGTGCGGGT,-0.08 kcal/mol
16,GTTAACACGTGCTTAT,0.13 kcal/mol
17,GCGTCCACGTGTTGTG,0.01 kcal/mol
18,AGGGGCACGTGAATGA,0.11 kcal/mol
19,TGGGTCACGTGGCCTA,0.03 kcal/mol
20,ATAGGCACGTGGAATT,0.04 kcal/mol
21,GTATGCACGTGAGGTA,0.12 kcal/mol
22,TTTGTCACGTGTTGCA,0.04 kcal/mol
23,TTTAGCACGTGACTTG,0.07 kcal/mol
